# Data from PubChem BioAssay AID686979 (National Center for Advancing Translational Sciences (NCATS), 2013).
# Several values for one entry are separate records, joined by “and”; a condition that tells them apart may be missing. Equal values may be shown once. Out of some 420,000 compounds screened, about 50,000 (12%) were called active. The shares of active, inactive and inconclusive entries below differ from those in the screen. Calls come from the whole dose curve; as a rule, active = well fitted inhibition curve with a large enough effect; inconclusive = small, poorly fitted or top-dose-only effect; inactive = flat fitted curve, though single readings scatter. Potencies beside an inconclusive call are fits to weak or partial responses and may not hold up.
# Assay: qHTS for Inhibitors of human tyrosyl-DNA phosphodiesterase 1 (TDP1): qHTS in cells in presence of CPT; note: nearly all actives have a fitted effect of over 55% in size
# Details: chicken DT40 Tdp1-/-;hTDP1 cells + 20 nM CPT, ATP luminescence, 48 h; activity change, negative = growth inhibition: at 46.2 µM (top of the series)
# Procedure, shortened: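 Chicken DT40 Tdp1-/- cells complemented with human TDP1, 400 cells/well, exposed to compounds plus 20 nM camptothecin for at least 48 h at 37 C; viability read as ATP content by CellTiter-Glo luminescence.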
# % is set by controls: 0 for no effect and ±100 for the full control effect; potency is the fitted concentration of half-maximal effect; tags give direction and shape of the fitted curve.
Compound,Potency,"activity change, negative = growth inhibition"
Cc1ccc(S(=O)(=O)N2CCCCC2CCNC(=O)C(=O)NCc2ccncc2)cc1 (configuration not stated),"inconclusive: 25.9 µM [inhibitor, partial curve]",–
CCOc1cccc2sc(NC(=O)CCS(=O)(=O)c3ccccc3)nc12,active: 8.2 µM,–
CC1Cn2cc(C(=O)Nc3cccc(C(F)(F)F)c3)c(=O)c3c(Cl)ccc(c32)O1 (configuration not stated),–,inactive: -8.18%
Cc1c(C(=O)Nc2ccccc2)c2ccc(C(F)(F)F)cc2n1O,–,inactive: -8.53%
CC(Sc1ccccc1F)C(=O)Nc1cccc(S(=O)(=O)N2CCOCC2)c1 (configuration not stated),"inconclusive: 32.6 µM [inhibitor, single point]",–
Cc1ccc(/C=C2/SC(=S)N(CC(=O)Nc3ncc(Cc4ccc(C)cc4)s3)C2=O)cc1,active: 23.1 µM,–
CCN(CC)C(=O)C1CCCN(c2ncnc3c2cnn3-c2ccc(Cl)cc2)C1 (configuration not stated),"inconclusive: 29.1 µM [inhibitor, single point]",–
O=C(C1CCCN(S(=O)(=O)c2cnc[nH]2)C1)N1CCN(c2ccc(Cl)cc2)CC1 (configuration not stated),active: 13 µM,–
COc1ccc(Nc2ccc(S(=O)(=O)N3CCCCC3)cc2[N+](=O)[O-])cc1Cl,"inconclusive: 18.4 µM [inhibitor, single point]",–
C=CCN([C@@H](CC(C)C)C(=O)OC)S(=O)(=O)N(CC=C)[C@@H](CC(C)C)C(=O)OC,"inconclusive: 22.4 µM [inhibitor, single point] and inconclusive: 29.1 µM [inhibitor, single point]",–
COc1ccc(N2CCN(C(=O)c3c(C)nn(-c4ccccc4)c3C)CC2)cc1,"inconclusive: 25.9 µM [inhibitor, single point]",–
O=C(NC(c1ccc(-c2ccccc2)cc1)c1cnccn1)C1CCN(CCN2C(=O)c3ccccc3C2=O)CC1 (configuration not stated),active: 23.1 µM,–
O=C(CCN1CCN(Cc2ccccc2)CC1)NNC(=O)Nc1cccc([N+](=O)[O-])c1,–,inactive: -1.68%
CC(C)(C)N=Cc1cc(-c2ccccc2)sc1O,–,inactive: -10.9%
CCC/C(=N\NC(=O)C1CCCC1)c1ccccc1,–,inactive: -3.3%
CCOc1ccc(Cl)cc1-c1cc(C(=O)NCc2ccccc2OC)[nH]n1,"inconclusive: 16.4 µM [inhibitor, single point]",–
CCOC(=O)C(NC(=O)c1ccc(OC)cc1)(N1CCCC1=O)C(F)(F)F (configuration not stated),"inconclusive: 23.1 µM [inhibitor, partial curve, poor fit]",–
O=Cc1ccc(OCC(=O)NC(=O)NC2CCCCC2)cc1,"inconclusive: 16.4 µM [inhibitor, single point]",–
CCN(CC)S(=O)(=O)c1ccc(C)c(NC(=S)NC2CCCCC2)c1,"inconclusive: 23.1 µM [inhibitor, single point]",–
C=C1CCN(C(C(=O)OC)C(C)C)S(=O)(=O)c2ccccc21 (configuration not stated),–,inconclusive: -30.9% [inhibitor]
CN(C(=O)c1cnc2n(c1=O)CCS2)C1CCCCC1,"inconclusive: 29.1 µM [inhibitor, single point]",–
O=C1NC(=O)C2(CCCCCCC2)N1,–,inactive: -0.367%
CCN1CCN(CCCNC(=O)c2ccc3c(c2)sc2nc(-c4ccc(OC)cc4)cn23)CC1,active: 0.92 µM,–
CCNC(=O)NC(=O)CSc1nc2ccccc2n1CC(C)C,"inconclusive: 13 µM [inhibitor, single point]",–

Compound,Potency,"activity change, negative = growth inhibition"
CN1CCC(N(C)C(=S)NC(=O)c2cc(-c3cccc(Br)c3)nc3ccccc23)CC1,"inconclusive: 29.1 µM [inhibitor, single point]",–
Cc1ccc(C(=O)NCCc2nnc3ccc(NCc4ccc5c(c4)OCO5)nn23)cc1,"inconclusive: 18.4 µM [inhibitor, single point]",–
c1ccc(CN2CCN(c3nc(-c4ccccn4)nc4ccccc34)CC2)cc1,–,inactive: -4.9%
N#C/C(=C\c1cccnc1)C(=O)Nc1cccc2ccccc12,"inconclusive: 20.6 µM [inhibitor, single point]",–
COc1ccccc1Oc1ccc(NC(=O)c2ccccc2C)cc1,"inconclusive: 25.9 µM [inhibitor, single point]",–
Cc1ccccc1OCC(=O)N1N=C(C(F)(F)F)CC1(O)C(C)(C)C (configuration not stated),"inconclusive: 25.9 µM [inhibitor, partial curve]",–
O=C(NNC(=S)Nc1ccccc1)C1CC1,–,inactive: 4.19%
O=C(NCc1ccco1)c1ccc(Cn2cc([N+](=O)[O-])cn2)o1,–,inactive: -7.05%
CCOc1ccccc1OCCCC(=O)N1CCN(S(=O)(=O)c2ccc(C)cc2)CC1,"inconclusive: 29.1 µM [inhibitor, single point]",–
CCNc1c(NC(=O)c2cc(OCC)c(OCC)c(OCC)c2)c(=O)oc2ccccc12,"inconclusive: 18.4 µM [inhibitor, single point]",–
O=C1C(Cc2c[nH]c3ccccc23)NC(=S)N1C1CCCCC1 (configuration not stated),–,inactive: -17.2%
S=C(NCCCCN(Cc1ccc(Cl)cc1)c1ccc(Br)cn1)NCCCc1cnc[nH]1,active: 7.08 µM,–
O=[N+]([O-])c1ccc(O)c(/C=N/Nc2nn[nH]n2)c1,–,inactive: -22.9%
CCOC(=O)c1c(-c2ccc(OC)cc2)oc2ccc(OCc3ccc(C(=O)OC)cc3)cc12,"inconclusive: 23.1 µM [inhibitor, single point]",–
Cc1cc(C)n(CCc2nc(-c3cc4ccccc4o3)cs2)n1,active: 18.4 µM,–
CCOc1ccc(C2C(C#N)=C(N)Oc3cc(O)ccc32)cc1OCC (configuration not stated),"inconclusive: 29.1 µM [inhibitor, single point]",–
COC(=O)c1sc(C(C)(C)C)cc1CS(=O)(=O)c1ccc(Cl)cc1,"inconclusive: 29.1 µM [inhibitor, single point]",–
CCc1nnc(NC(=O)CSc2nccn2-c2cc(C)cc(C)c2)s1,active: 23.1 µM,–
COc1ccccc1C(CC(=O)Nc1nccs1)c1ccco1 (configuration not stated),"inconclusive: 16.4 µM [inhibitor, partial curve]",–
CCCCNC(=O)C1(C)CCCCN1CC(=O)c1ccc(OC)cc1 (configuration not stated),active: 16.4 µM,–
O=S(=O)(c1ccc(Cl)cc1)n1ccc2cccnc21,"inconclusive: 18.4 µM [inhibitor, single point]",–
CN(C)S(=O)(=O)c1cccc(NC(=S)Nc2ccc(Cl)cc2Cl)c1,"inconclusive: 29.1 µM [inhibitor, single point]",–
Cc1cc(C)cc(NC(=O)N2CCN(C/C=C/c3ccccc3)CC2)c1,–,inactive: -6.13%
Cc1ccc(NC(=O)CN(C)C(=O)c2ccc(OCc3c(C)noc3C)cc2)cc1,–,inactive: -19.8%

Compound,Potency,"activity change, negative = growth inhibition"
COc1ccc(CN2CCC(=O)N([C@H](CO)c3ccccc3)CC2)cc1,inactive,–
CCc1ccc(N=C2N=C(N)c3ccccc32)cc1,"inconclusive: 9.2 µM [inhibitor, partial curve]",–
COc1ccc(NS(=O)(=O)c2cccc3nonc23)c(OC)c1,–,inactive: -1.88%
COc1ccccc1CNc1cc(-c2cccnc2)ncn1,"inconclusive: 29.1 µM [inhibitor, single point]",–
O=C1/C(=C/c2ccccc2)Oc2cc(OC(=O)N3CCOCC3)ccc21,"inconclusive: 29.1 µM [inhibitor, single point]",–
COc1ccc([C@@H]2[C@@H]3C(=O)N(C(C)(C)C)C(=O)[C@@H]3[C@]3(C)C(=O)N(c4cccc(Cl)c4)C(=O)N23)cc1,–,inactive: 7.25%
O=C(Nc1nc(-c2ccc(F)c(F)c2)cs1)c1ccc(OCC2CCCO2)cc1 (configuration not stated),"inconclusive: 8.2 µM [inhibitor, partial curve]",–
COc1ccccc1-c1ncn(Cc2cccc(-c3ccccc3)c2)c1CC(C)C,active: 20.6 µM,–
CCCOc1ccc(C(=O)Nc2ccc(C)cc2[N+](=O)[O-])cc1,"inconclusive: 14.6 µM [inhibitor, partial curve, poor fit]",–
Cc1ccc(N(CC(=O)NCc2ccc(Cl)cc2)S(C)(=O)=O)cc1,–,inactive: -20.7%
CC(=O)c1ccc(N2CCN(C(=S)Nc3ccccc3C(F)(F)F)CC2)cc1,"inconclusive: 29.1 µM [inhibitor, single point]",–
CCCCC(CC)CN1C(=O)/C(=C/c2ccncc2)SC1=S (configuration not stated),"inconclusive: 20.6 µM [inhibitor, single point]",–
O=C(NCCCN1CCCC1=O)c1cc(S(=O)(=O)N2CCN(c3ccccc3)CC2)ccc1Cl,"inconclusive: 20.6 µM [inhibitor, single point]",–
COc1cccc(CNC(=O)CCn2cccn2)c1,–,inactive: 8.85%
Cc1ccc(-c2cnc(C(O)c3ccc(Cl)c(Cl)c3)[nH]2)cc1 (configuration not stated),"inconclusive: 29.1 µM [inhibitor, single point]",–
CC(C)OC(=O)c1cccnc1SCC(=O)N(C)c1ccccc1,–,inactive: -3.64%
O=[N+]([O-])c1ccc(Sc2nnnn2-c2ccccc2)nc1,active: 3.26 µM,–
Cn1c(N)c(C(=O)COC(=O)[C@@H]2CCCN2S(=O)(=O)c2ccc(Cl)cc2)c(=O)n(C)c1=O,–,inactive: 14.1%
Cc1ccc(NS(=O)(=O)c2ccccc2Cl)c2c1CC(C)(C)O2,active: 20 µM,–
CC1(C)Cc2c(sc3c2c(=N)n(Cc2ccco2)c(=O)n3CC(=O)Nc2ccc(Cl)cc2)CO1,"inconclusive: 16.4 µM [inhibitor, single point]",–
COc1ccc(CC(N)c2csc(NC(=O)NCCc3ccccc3)n2)cc1 (configuration not stated),"inconclusive: 29.1 µM [inhibitor, single point]",–
COc1ccc(COn2nnc3ccc(S(=O)(=O)N4CCOCC4)cc32)cc1F,–,inactive: -28.2%
CCOC(=O)C(=Cc1ccc(-n2ccnc2)cc1)C(=O)OCC,active: 23.1 µM,–
Cc1sc2ncnc(N3CCC(C(=O)N(C)CC(=O)Nc4ccc(Cl)c(C(F)(F)F)c4)CC3)c2c1C,"inconclusive: 25.9 µM [inhibitor, single point]",–
